Test results: PubChem BioAssay AID2546 (National Center for Advancing Translational Sciences (NCATS), 2010)
The campaign covered roughly 310,000 compounds. About 11,000 (3.5%) were called active. The shares of active, inactive and inconclusive entries below differ from those in the screen. The call rests on the fitted dose curve; in most records, active means well fitted inhibition curve with a large enough effect; inconclusive means small, poorly fitted or top-dose-only effect, or effect the other way; inactive means flat fitted curve, though single readings scatter. No potency is given beside an inconclusive call; the fits are too rough. More than one record can exist for a structure, and the calls need not agree.

Assay: VP16 counterscreen qHTS for inhibitors of ROR gamma transcriptional activity;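 further: Gal4-VP16 expression switched on by copper sulfate through the metallothionein promoter; nearly all actives have a fitted effect of over 50% in size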
Details: Drosophila S2 Gal4-VP16 UAS-luciferase, luminescence, 20 h; series mostly up to 53.6 µM
Potency means the concentration at half of the fitted maximal effect; tags describe the fitted curve by direction and shape.

Question: Which Potency does the source give for `C=CCn1c(C)cc(C(=O)Cn2ncc(Cl)c(Cl)c2=O)c1C` here?
Answer: inconclusive [inhibitor, single point]

Question: For `CC(C)c1ccc(C(N)=S)cc1`, which Potency is on record?
Answer: active: 17.8 µM

Question: With `CC1=C/C(=N\NC(=O)c2ccc(O)cc2)CC1` as the compound, how does the Potency read?
Answer: inconclusive [inhibitor, single point]

Question: Which Potency does the source give for `O=C(/C(=C/c1ccc(Cl)cc1)c1nc2ccccc2[nH]1)c1ccccc1` here?
Answer: active: 10 µM

Question: Which Potency does the source give for `Cn1nccc1C(=O)NC1CCCc2c1cnn2-c1ccc(F)cc1F` (stereo unspecified) here?
Answer: active: 0.891 µM

Question: With `CCOC(=O)C1(Cc2ccccc2)CCN(Cc2nccn2CC)CC1` as the compound, how does the Potency read?
Answer: inconclusive [inhibitor, partial curve]

Question: With `O=C(Oc1oc(-c2ccco2)nc1C=Nc1ccc(Cl)cc1)c1ccco1` as the compound, how does the Potency read?
Answer: inconclusive [inhibitor, full curve, poor fit]

Question: With `Cc1cc2cc(CN(Cc3cccs3)C(=S)NCc3ccco3)c(=O)[nH]c2cc1C` as the compound, how does the Potency read?
Answer: inactive

Question: For `CCOC(=O)c1ccc(NC(=O)Cn2cnc3cc(C)c(C)cc32)cc1`, which Potency is on record?
Answer: active: 7.08 µM

Question: Which Potency does the source give for `COc1ccc(Br)cc1-c1nc2c(c(=O)[nH]c(=O)n2Cc2ccccc2)n1C` here?
Answer: inconclusive [inhibitor, single point]

Question: With `CCOC(=O)c1cc(CC)sc1N1C(=O)CC(Sc2ccccc2C(=O)O)C1=O` (stereo unspecified) as the compound, how does the Potency read?
Answer: inconclusive [inhibitor, partial curve]

Question: With `COc1ccc(C2c3c(-c4ccccc4O)n[nH]c3C(=O)N2CCc2ccc(OC)c(OC)c2)cc1` (stereo unspecified) as the compound, how does the Potency read?
Answer: inconclusive [inhibitor, single point]

Question: Which Potency does the source give for `COC(=O)c1ccc(N2CCCCC2)c(NS(=O)(=O)c2ccc(C)cc2)c1` here?
Answer: inactive

Question: For `O=C(Nc1nnc(C2CC2)o1)c1ccc(S(=O)(=O)N2CCCc3ccccc32)cc1`, which Potency is on record?
Answer: active: 0.708 µM

Question: Which Potency does the source give for `CCCCCOc1ccc(Br)cc1/C(C)=N/NC1=NCCN1` here?
Answer: inconclusive [inhibitor, single point]

Question: Which Potency does the source give for `Cc1cc(C(=O)COc2cccnc2[N+](=O)[O-])c(C)n1-c1ccccc1F` here?
Answer: inconclusive [inhibitor, single point]

Question: With `O=C(NC(NC(=S)Nc1ccccc1)C(Cl)(Cl)Cl)c1cccc(Cl)c1` (stereo unspecified) as the compound, how does the Potency read?
Answer: inconclusive [inhibitor, single point]

Question: Which Potency does the source give for `COc1ccc2nc(/N=C/c3cccc(OC)c3O)sc2c1` here?
Answer: inactive

Question: With `N#CCC(=O)N/N=C/c1c2ccccc2cc2ccccc12` as the compound, how does the Potency read?
Answer: inconclusive [inhibitor, single point]

Question: With `O=C(Cn1cc([N+](=O)[O-])nc1[N+](=O)[O-])N1CCN(c2ccccc2)CC1` as the compound, how does the Potency read?
Answer: inconclusive [inhibitor, single point]

Question: With `O=C(O)c1ccc2c(=O)n3c(nc2c1)/C(=C/c1cccc(O)c1)CC3` as the compound, how does the Potency read?
Answer: inactive

Question: For `CCOC(=O)CN1NC2(CCC(C(C)(C)C)CC2)NC1=S` (stereo unspecified), which Potency is on record?
Answer: inconclusive [inhibitor, single point]

Question: Which Potency does the source give for `S=c1[nH]c(-c2cccs2)cn1-c1ccccc1` here?
Answer: inconclusive [inhibitor, partial curve, poor fit]

Question: With `Cc1ccc(NC(=S)N2CCN(S(=O)(=O)c3ccccc3)CC2)cc1` as the compound, how does the Potency read?
Answer: inactive

Question: Which Potency does the source give for `C/C(=N\NC(=O)c1ccc(Br)cc1)C1C(=O)c2ccccc2C1=O` here?
Answer: active: 3.55 µM

Question: For `Cc1cccc2c3nc4ccccc4nc3n(C)c12`, which Potency is on record?
Answer: inconclusive [inhibitor, single point]

Question: With `CC(=O)Oc1cc(OC(C)=O)c2c(c1)OC(c1ccc(OC(C)=O)c(OC(C)=O)c1)C(OC(C)=O)C2` (stereo unspecified) as the compound, how does the Potency read?
Answer: active: 15.8 µM

Question: Which Potency does the source give for `CC(C)(C)c1ccc(C(=O)CSc2nc3ccccc3c(=O)[nH]2)cc1` here?
Answer: inconclusive [inhibitor, partial curve]

Question: Which Potency does the source give for `COc1cccc(-c2ccc(C#N)c(=O)[nH]2)c1` here?
Answer: inactive

Question: With `O=C(Nc1ccc(F)cc1)N(CCCN1CCOCC1)Cc1cc2cc3c(cc2[nH]c1=O)OCCO3` as the compound, how does the Potency read?
Answer: inactive

Question: Which Potency does the source give for `CCCCC1=CC2=C(c3ccco3)C(=O)C(C)(OC(=O)c3ccc(OC)cc3)C(=O)C2=CN1Cc1ccccc1` (stereo unspecified) here?
Answer: inactive

Question: With `CCOC(=O)c1cc(C(=O)NC(C)c2ccccc2)c(=O)[nH]c1C` (stereo unspecified) as the compound, how does the Potency read?
Answer: inactive

Question: For `COc1ccc(C)cc1C1=Nc2ccccc2C1(C)C`, which Potency is on record?
Answer: inconclusive [inhibitor, single point]

Question: With `COC(=O)CSC1=C(C#N)C(c2ccsc2)CC(=O)N1` (stereo unspecified) as the compound, how does the Potency read?
Answer: inconclusive [activator, single point]

Question: With `CCCOc1ccc(/C=N/NC(=O)c2ccc(Cn3cc([N+](=O)[O-])cn3)o2)cc1` as the compound, how does the Potency read?
Answer: inactive

Question: Which Potency does the source give for `COCCNC(=O)c1cc(-c2ccc3c(c2)OCO3)on1` here?
Answer: inconclusive [inhibitor, partial curve]

Question: Which Potency does the source give for `CC[C@@]1(O)C(=O)COc2c1cc1n(c2=O)Cc2c-1nc1cccc(C(C)C)c1c2[Si](C)(C)C` here?
Answer: inconclusive [inhibitor, full curve, poor fit]

Question: For `O=C(Nc1ccccc1F)Nc1ccccc1Br`, which Potency is on record?
Answer: inconclusive [activator, full curve]

Question: For `Cc1cnc(CNc2ccnc(-c3ccc(C(=O)N(C)C)cc3)n2)cn1`, which Potency is on record?
Answer: inactive

Question: Which Potency does the source give for `CCC(CC)c1nnc(NC(=O)c2ccc3ccccc3n2)s1` here?
Answer: active: 10 µM

Question: With `O=C(CN1C(=O)C2C3C=CC(C3)C2C1=O)Nc1ccc(F)cc1` (stereo unspecified) as the compound, how does the Potency read?
Answer: inconclusive [inhibitor, partial curve]

Question: For `O=[N+]([O-])c1cc2c(cc1/C=N/n1c(-c3ccccc3)n[nH]c1=S)OCO2`, which Potency is on record?
Answer: inconclusive [inhibitor, full curve, poor fit]

Question: Which Potency does the source give for `Cc1c(C(=O)NNC(=O)Nc2ccc([N+](=O)[O-])cc2)oc2ccccc12` here?
Answer: inconclusive [inhibitor, partial curve]

Question: With `COc1ccc(C(=O)N[C@H](C(=O)Nc2nc3ccccc3[nH]2)C(C)C)cc1` as the compound, how does the Potency read?
Answer: inactive

Question: With `CCC/C(=N\NC(=O)c1cccc(C)c1)c1ccccc1` as the compound, how does the Potency read?
Answer: inconclusive [activator, single point]

Question: For `CCN(CC)CCn1c(SCC(=O)Nc2ccc(F)cc2)nc2c(sc3ccccc32)c1=O`, which Potency is on record?
Answer: inactive
